# Assay results as given in the supplement of paper PMC8728848.
# The list shows a part of the results.
# B1: PA-IL (Pseudomonas aeruginosa), Q05097 (protein)
# chain: MAWKGEVLANNEAGQVTSIIYNPGDVITIVAAGWASYGPTQKWGPQGDREHPDQGLICHDAFCGALVMKIGNSGTIPVNTGLFRWVAPNNVQGAITLIYNDVPGTYGNNSGSFSVNIGKDQS
# How the values were obtained:
# Test in all cases: glycan array binding signal (z-score within array); higher = stronger binding
# Conditions in all cases: glycan notation: IUPAC condensed, linker removed
# [1] = biological target: Neu5Ac(a2-6)Gal(b1-4)GlcNAc
# Method in brief: (§1)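 Glycan array binding is given as a within-array Z-score, which can be read as non-binding when negative. The arrays, 3228 of them, came from the Consortium for Functional Glycomics database and were retained only where the protein sequence was available. Z-scores were averaged across arrays of the same protein sequence at different concentrations or buffers and across linkers.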
# [2] = biological target: Neu5Ac(a2-6)Gal(b1-4)GlcNAc(b1-2)Man
# Method in brief: as §1
# [3] = biological target: Neu5Ac(a2-6)Gal(b1-4)GlcNAc(b1-2)Man(a1-3)Man(b1-4)GlcNAc(b1-4)GlcNAc
# Method in brief: as §1
# [4] = biological target: Neu5Ac(a2-6)Gal(b1-4)GlcNAc(b1-2)Man(a1-3)[Gal(b1-4)GlcNAc(b1-2)Man(a1-6)]Man(b1-4)GlcNAc(b1-4)GlcNAc
# Method in brief: as §1
# [5] = biological target: Neu5Ac(a2-6)Gal(b1-4)GlcNAc(b1-2)Man(a1-3)[GlcNAc(b1-2)Man(a1-6)]Man(b1-4)GlcNAc(b1-4)GlcNAc
# Method in brief: as §1
# [6] = biological target: Neu5Ac(a2-6)Gal(b1-4)GlcNAc(b1-2)Man(a1-3)[GlcNAc(b1-2)Man(b1-4)GlcNAc(b1-2)Man(a1-6)]Man(b1-4)GlcNAc(b1-4)GlcNAc
# Method in brief: as §1
# [7] = biological target: Neu5Ac(a2-6)Gal(b1-4)GlcNAc(b1-2)Man(a1-3)[GlcNAc(b1-4)][Neu5Ac(a2-6)Gal(b1-4)GlcNAc(b1-2)Man(a1-6)]Man(b1-4)GlcNAc(b1-4)GlcNAc
# Method in brief: as §1
# [8] = biological target: Neu5Ac(a2-6)Gal(b1-4)GlcNAc(b1-2)Man(a1-3)[Man(a1-6)]Man(b1-4)GlcNAc(b1-4)GlcNAc
# Method in brief: as §1
# [9] = biological target: Neu5Ac(a2-6)Gal(b1-4)GlcNAc(b1-2)Man(a1-3)[Neu5Ac(a2-3)Gal(b1-4)GlcNAc(b1-2)Man(a1-6)]Man(b1-4)GlcNAc(b1-4)GlcNAc
# Method in brief: as §1
# [10] = biological target: Neu5Ac(a2-6)Gal(b1-4)GlcNAc(b1-2)Man(a1-3)[Neu5Ac(a2-6)Gal(b1-4)GlcNAc(b1-2)Man(a1-6)]Man(b1-4)GlcNAc(b1-4)GlcNAc
# Method in brief: as §1
# [11] = biological target: Neu5Ac(a2-6)Gal(b1-4)GlcNAc(b1-2)Man(a1-3)[Neu5Ac(a2-6)Gal(b1-4)GlcNAc(b1-2)Man(a1-6)]Man(b1-4)GlcNAc(b1-4)[Fuc(a1-6)]GlcNAc
# Method in brief: as §1
# [12] = biological target: Neu5Ac(a2-6)Gal(b1-4)GlcNAc(b1-2)Man(a1-6)Man(b1-4)GlcNAc(b1-4)GlcNAc
# Method in brief: as §1
# [13] = biological target: Neu5Ac(a2-6)Gal(b1-4)GlcNAc(b1-2)Man(a1-6)[Gal(b1-4)GlcNAc(b1-2)Man(a1-3)]Man(b1-4)GlcNAc(b1-4)GlcNAc
# Method in brief: as §1
# [14] = biological target: Neu5Ac(a2-6)Gal(b1-4)GlcNAc(b1-2)Man(a1-6)[GlcNAc(b1-2)Man(a1-3)]Man(b1-4)GlcNAc(b1-4)GlcNAc
# Method in brief: as §1
# [15] = biological target: Neu5Ac(a2-6)Gal(b1-4)GlcNAc(b1-2)Man(a1-6)[Man(a1-3)]Man(b1-4)GlcNAc(b1-4)GlcNAc
# Method in brief: as §1
# [16] = biological target: Neu5Ac(a2-6)Gal(b1-4)GlcNAc(b1-2)[Neu5Ac(a2-6)Gal(b1-4)GlcNAc(b1-4)]Man(a1-3)[GlcNAc(b1-4)][Neu5Ac(a2-6)Gal(b1-4)GlcNAc(b1-2)[Neu5Ac(a2-6)Gal(b1-4)GlcNAc(b1-6)]Man(a1-6)]Man(b1-4)GlcNAc(b1-4)GlcNAc
# Method in brief: as §1
# [17] = biological target: Neu5Ac(a2-6)Gal(b1-4)GlcNAc(b1-2)[Neu5Ac(a2-6)Gal(b1-4)GlcNAc(b1-4)]Man(a1-3)[GlcNAc(b1-4)][Neu5Ac(a2-6)Gal(b1-4)GlcNAc(b1-4)Man(a1-6)]Man(b1-4)GlcNAc(b1-4)GlcNAc
# Method in brief: as §1
# [18] = biological target: Neu5Ac(a2-6)Gal(b1-4)GlcNAc(b1-2)[Neu5Ac(a2-6)Gal(b1-4)GlcNAc(b1-6)]Man(a1-6)[Neu5Ac(a2-6)Gal(b1-4)GlcNAc(b1-2)Man(a1-3)][GlcNAc(b1-4)]Man(b1-4)GlcNAc(b1-4)GlcNAc
# Method in brief: as §1
# [19] = biological target: Neu5Ac(a2-6)Gal(b1-4)GlcNAc(b1-3)Gal(b1-3)GlcNAc
# Method in brief: as §1
# [20] = biological target: Neu5Ac(a2-6)Gal(b1-4)GlcNAc(b1-3)Gal(b1-4)GlcNAc
# Method in brief: as §1
# [21] = biological target: Neu5Ac(a2-6)Gal(b1-4)GlcNAc(b1-3)Gal(b1-4)GlcNAc(b1-2)Man(a1-3)[Neu5Ac(a2-6)Gal(b1-4)GlcNAc(b1-3)Gal(b1-4)GlcNAc(b1-2)Man(a1-6)]GalNAc
# Method in brief: as §1
# [22] = biological target: Neu5Ac(a2-6)Gal(b1-4)GlcNAc(b1-3)Gal(b1-4)GlcNAc(b1-3)Gal(b1-4)GlcNAc
# Method in brief: as §1
# [23] = biological target: Neu5Ac(a2-6)Gal(b1-4)GlcNAc(b1-3)Gal(b1-4)GlcNAc(b1-3)Gal(b1-4)GlcNAc(b1-2)Man(a1-3)[Neu5Ac(a2-6)Gal(b1-4)GlcNAc(b1-3)Gal(b1-4)GlcNAc(b1-3)Gal(b1-4)GlcNAc(b1-2)Man(a1-6)]GalNAc
# Method in brief: as §1
# [24] = biological target: Neu5Ac(a2-6)Gal(b1-4)GlcNAc(b1-3)Gal(b1-4)GlcNAc(b1-3)GalNAc
# Method in brief: as §1
# [25] = biological target: Neu5Ac(a2-6)Gal(b1-4)GlcNAc(b1-3)Gal(b1-4)GlcNAc(b1-3)[Neu5Ac(a2-6)Gal(b1-4)GlcNAc(b1-3)Gal(b1-4)GlcNAc(b1-6)]GalNAc
# Method in brief: as §1
# [26] = biological target: Neu5Ac(a2-6)Gal(b1-4)GlcNAc(b1-3)Gal(b1-4)GlcNAc(b1-6)[Gal(b1-3)]GalNAc
# Method in brief: as §1
# [27] = biological target: Neu5Ac(a2-6)Gal(b1-4)GlcNAc(b1-3)Gal(b1-4)[Fuc(a1-3)]GlcNAc(b1-3)Gal(b1-4)[Fuc(a1-3)]GlcNAc
# Method in brief: as §1
# [28] = biological target: Neu5Ac(a2-6)Gal(b1-4)GlcNAc(b1-3)GalNAc
# Method in brief: as §1
# [29] = biological target: Neu5Ac(a2-6)Gal(b1-4)GlcNAc(b1-3)[Neu5Ac(a2-6)Gal(b1-4)GlcNAc(b1-6)]GalNAc
# Method in brief: as §1
# [30] = biological target: Neu5Ac(a2-6)Gal(b1-4)GlcNAc(b1-6)GalNAc
# Method in brief: as §1
# [31] = biological target: Neu5Ac(a2-6)Gal(b1-4)GlcNAc(b1-6)[Gal(b1-3)GlcNAc(b1-3)]Gal(b1-4)Glc
# Method in brief: as §1
# [32] = biological target: Neu5Ac(a2-6)Gal(b1-4)GlcNAc(b1-6)[Gal(b1-3)]GalNAc
# Method in brief: as §1
# [33] = biological target: Neu5Ac(a2-6)Gal(b1-4)GlcNAc6S
# Method in brief: as §1
# Neu5Ac(a2-6)GalNAc = biological target: Neu5Ac(a2-6)GalNAc
# Method in brief: as §1
# [34] = biological target: Neu5Ac(a2-6)GalNAc(b1-4)GlcNAc
# Method in brief: as §1
# [35] = biological target: Neu5Ac(a2-6)GalNAc(b1-4)GlcNAc6S
# Method in brief: as §1
# [36] = biological target: Neu5Ac(a2-6)GlcNAc(b1-4)GlcNAc
# Method in brief: as §1
# [37] = biological target: Neu5Ac(a2-6)GlcNAc(b1-4)GlcNAc(b1-4)GlcNAc
# Method in brief: as §1
# Neu5Ac(a2-8)Neu5Ac = biological target: Neu5Ac(a2-8)Neu5Ac
# Method in brief: as §1
# [38] = biological target: Neu5Ac(a2-8)Neu5Ac(a2-3)Gal(b1-3)GalNAc(b1-4)[Neu5Ac(a2-3)]Gal(b1-4)Glc
# Method in brief: as §1
# [39] = biological target: Neu5Ac(a2-8)Neu5Ac(a2-3)Gal(b1-3)GalNAc(b1-4)[Neu5Ac(a2-8)Neu5Ac(a2-3)]Gal(b1-4)Glc
# Method in brief: as §1
# [40] = biological target: Neu5Ac(a2-8)Neu5Ac(a2-3)Gal(b1-4)Glc
# Method in brief: as §1
# [41] = biological target: Neu5Ac(a2-8)Neu5Ac(a2-3)Gal(b1-4)GlcNAc
# Method in brief: as §1
# [42] = biological target: Neu5Ac(a2-8)Neu5Ac(a2-3)[Gal(b1-3)GalNAc(b1-4)]Gal(b1-4)Glc
# Method in brief: as §1
# [43] = biological target: Neu5Ac(a2-8)Neu5Ac(a2-3)[GalNAc(b1-4)]Gal(b1-4)Glc
# Method in brief: as §1
binder,measurement,setting,value
B1,glycan array binding signal (z-score),[1],-0.231
same,glycan array binding signal (z-score),[2],-0.225
same,glycan array binding signal (z-score),[3],-0.218
same,glycan array binding signal (z-score),[4],-0.228
same,glycan array binding signal (z-score),[5],-0.239
same,glycan array binding signal (z-score),[6],-0.233
same,glycan array binding signal (z-score),[7],-0.238
same,glycan array binding signal (z-score),[8],-0.235
same,glycan array binding signal (z-score),[9],-0.251
same,glycan array binding signal (z-score),[10],-0.225
same,glycan array binding signal (z-score),[11],-0.205
same,glycan array binding signal (z-score),[12],-0.225
same,glycan array binding signal (z-score),[13],-0.215
same,glycan array binding signal (z-score),[14],-0.225
same,glycan array binding signal (z-score),[15],-0.227
same,glycan array binding signal (z-score),[16],-0.224
same,glycan array binding signal (z-score),[17],-0.225
same,glycan array binding signal (z-score),[18],-0.243
same,glycan array binding signal (z-score),[19],-0.225
same,glycan array binding signal (z-score),[20],-0.236
same,glycan array binding signal (z-score),[21],-0.22
same,glycan array binding signal (z-score),[22],-0.227
same,glycan array binding signal (z-score),[23],0.029
same,glycan array binding signal (z-score),[24],-0.228
same,glycan array binding signal (z-score),[25],0.055
same,glycan array binding signal (z-score),[26],-0.187
same,glycan array binding signal (z-score),[27],-0.199
same,glycan array binding signal (z-score),[28],-0.236
same,glycan array binding signal (z-score),[29],-0.219
same,glycan array binding signal (z-score),[30],-0.209
same,glycan array binding signal (z-score),[31],-0.23
same,glycan array binding signal (z-score),[32],-0.216
same,glycan array binding signal (z-score),[33],-0.228
same,glycan array binding signal (z-score),Neu5Ac(a2-6)GalNAc,-0.229
same,glycan array binding signal (z-score),[34],-0.228
same,glycan array binding signal (z-score),[35],-0.225
same,glycan array binding signal (z-score),[36],-0.236
same,glycan array binding signal (z-score),[37],-0.241
same,glycan array binding signal (z-score),Neu5Ac(a2-8)Neu5Ac,-0.226
same,glycan array binding signal (z-score),[38],-0.243
same,glycan array binding signal (z-score),[39],-0.225
same,glycan array binding signal (z-score),[40],-0.238
same,glycan array binding signal (z-score),[41],-0.23
same,glycan array binding signal (z-score),[42],-0.218
same,glycan array binding signal (z-score),[43],-0.238
